Results reported in publication PMC9911399, “Two distinct binding modes provide the RNA-binding protein RbFox with extraordinary sequence specificity”.
Residue numbers refer to the chain shown, from its start. The list shows a part of the results.

T1: RBFOX1 RRM RbFoxmut (Fox-RRM*) (Homo sapiens, UniProt Q9NWB1 109-208, R118D;E147R;N151S;E152T)
T1 sequence: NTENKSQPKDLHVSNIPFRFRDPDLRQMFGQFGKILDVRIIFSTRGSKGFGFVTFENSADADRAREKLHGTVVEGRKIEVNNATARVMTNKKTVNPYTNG

B1: CCUCCGG (DNA:RNA)
RNA: GGGAGACCGGAAUUCAGAUUGUCCCCUCCGGUUAAAUCCCGUCGUAGCCACCA
DNA 1: CAATCTGAATTCCGGTCTCCC
DNA 2: TGGTGGCTACGACGGGATT
B2: AAUAUUG (DNA:RNA)
RNA: B1 RNA with C25A, C26A, C28A, C29U, G30U
DNA 1: CAATCTGAATTCCGGTCTCCC
DNA 2: TGGTGGCTACGACGGGATT
B3: CCCAUCU (DNA:RNA)
RNA: B1 RNA with U27C, C28A, C29U, G30C, G31U
DNA 1: CAATCTGAATTCCGGTCTCCC
DNA 2: TGGTGGCTACGACGGGATT
B4: AUUCCUC (DNA:RNA)
RNA: B1 RNA with C25A, C26U, G30U, G31C
DNA 1: CAATCTGAATTCCGGTCTCCC
DNA 2: TGGTGGCTACGACGGGATT
B5: UAACGAA (DNA:RNA)
RNA: B1 RNA with C25U, C26A, U27A, C29G, G30A, G31A
DNA 1: CAATCTGAATTCCGGTCTCCC
DNA 2: TGGTGGCTACGACGGGATT
B6: AGCUCUG (DNA:RNA)
RNA: B1 RNA with C25A, C26G, U27C, C28U, G30U
DNA 1: CAATCTGAATTCCGGTCTCCC
DNA 2: TGGTGGCTACGACGGGATT
B7: AGCCAUC (DNA:RNA)
RNA: B1 RNA with C25A, C26G, U27C, C29A, G30U, G31C
DNA 1: CAATCTGAATTCCGGTCTCCC
DNA 2: TGGTGGCTACGACGGGATT
B8: GUAGAUG (DNA:RNA)
RNA: B1 RNA with C25G, C26U, U27A, C28G, C29A, G30U
DNA 1: CAATCTGAATTCCGGTCTCCC
DNA 2: TGGTGGCTACGACGGGATT
B9: UCCUAAU (DNA:RNA)
RNA: B1 RNA with C25U, U27C, C28U, C29A, G30A, G31U
DNA 1: CAATCTGAATTCCGGTCTCCC
DNA 2: TGGTGGCTACGACGGGATT
B10: UGUCUAU (DNA:RNA)
RNA: B1 RNA with C25U, C26G, C29U, G30A, G31U
DNA 1: CAATCTGAATTCCGGTCTCCC
DNA 2: TGGTGGCTACGACGGGATT
B11: CCAAGUA (DNA:RNA)
RNA: B1 RNA with U27A, C28A, C29G, G30U, G31A
DNA 1: CAATCTGAATTCCGGTCTCCC
DNA 2: TGGTGGCTACGACGGGATT
B12: UCGACCA (DNA:RNA)
RNA: B1 RNA with C25U, U27G, C28A, G30C, G31A
DNA 1: CAATCTGAATTCCGGTCTCCC
DNA 2: TGGTGGCTACGACGGGATT
B13: CCGAUAC (DNA:RNA)
RNA: B1 RNA with U27G, C28A, C29U, G30A, G31C
DNA 1: CAATCTGAATTCCGGTCTCCC
DNA 2: TGGTGGCTACGACGGGATT
B14: CAAUUCA (DNA:RNA)
RNA: B1 RNA with C26A, U27A, C28U, C29U, G30C, G31A
DNA 1: CAATCTGAATTCCGGTCTCCC
DNA 2: TGGTGGCTACGACGGGATT
B15: GCAAUGA (DNA:RNA)
RNA: B1 RNA with C25G, U27A, C28A, C29U, G31A
DNA 1: CAATCTGAATTCCGGTCTCCC
DNA 2: TGGTGGCTACGACGGGATT
B16: GUCCCGG (DNA:RNA)
RNA: B1 RNA with C25G, C26U, U27C
DNA 1: CAATCTGAATTCCGGTCTCCC
DNA 2: TGGTGGCTACGACGGGATT
B17: GUGUCUU (DNA:RNA)
RNA: B1 RNA with C25G, C26U, U27G, C28U, G30U, G31U
DNA 1: CAATCTGAATTCCGGTCTCCC
DNA 2: TGGTGGCTACGACGGGATT
B18: GAGGCCC (DNA:RNA)
RNA: B1 RNA with C25G, C26A, U27G, C28G, G30C, G31C
DNA 1: CAATCTGAATTCCGGTCTCCC
DNA 2: TGGTGGCTACGACGGGATT
B19: GUUCCAC (DNA:RNA)
RNA: B1 RNA with C25G, C26U, G30A, G31C
DNA 1: CAATCTGAATTCCGGTCTCCC
DNA 2: TGGTGGCTACGACGGGATT
B20: CUCUGAC (DNA:RNA)
RNA: B1 RNA with C26U, U27C, C28U, C29G, G30A, G31C
DNA 1: CAATCTGAATTCCGGTCTCCC
DNA 2: TGGTGGCTACGACGGGATT

What follows are binders tested against T1, RBFOX1 RRM RbFoxmut (Fox-RRM*) (assay: EMSA; HiTS-Eq, 1 nM pool, 10 min; buffer printed only for the single-RNA assays: 10 mM Tris pH 7.5, 150 mM NaCl, 3.4 mM EDTA, 0.001% NP-40, 30 C). Details: tags: His6 N-terminal (pET28a); label: 5' 32P.
Summary of the method: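 Purified RbFox RRM (wild type or mutant) was equilibrated for 10 min in 50 µL with 1 nM of a 5′-radiolabelled pool of RNA with 7 randomized nucleotides, its flanks annealed to DNA oligonucleotides, across increasing protein concentrations. Free RNA was separated by 8% native PAGE, excised, reverse-transcribed, PCR-barcoded and sequenced on an Illumina HiSeq 2500. Relative association constants came from read-count changes of each variant against the control reaction, normalised to the cognate motif.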

Point of comparison: B7, binding signal 0.0563 KA relative to UGCAUGU. Against it:
- B1 — higher, 0.0622 KA relative to UGCAUGU
- B2 — higher, 0.112 KA relative to UGCAUGU
- B3 — higher, 0.0617 KA relative to UGCAUGU
- B4 — higher, 0.0696 KA relative to UGCAUGU
- B5 — higher, 0.0679 KA relative to UGCAUGU
- B6 — higher, 0.0949 KA relative to UGCAUGU
- B8 — higher, 0.178 KA relative to UGCAUGU
- B9 — higher, 0.1 KA relative to UGCAUGU
- B10 — higher, 0.112 KA relative to UGCAUGU
- B11 — higher, 0.115 KA relative to UGCAUGU
- B12 — lower, 0.0475 KA relative to UGCAUGU
- B13 — higher, 0.0977 KA relative to UGCAUGU
- B14 — higher, 0.116 KA relative to UGCAUGU
- B15 — higher, 0.0709 KA relative to UGCAUGU
- B16 — higher, 0.0859 KA relative to UGCAUGU
- B17 — higher, 0.101 KA relative to UGCAUGU
- B18 — lower, 0.0476 KA relative to UGCAUGU
- B19 — higher, 0.104 KA relative to UGCAUGU
- B20 — higher, 0.115 KA relative to UGCAUGU
